These are yes or no findings as the source states them, for the method shown. In cells and extracts the contact can be indirect. Some entries that bind do so weakly or less than the wild type. For some assays here: Sequences can lack the tags named with a protein. Each block holds one molecule with its values, some of them ahead of it.
Experiments:
[1] = biological target: ubiquitin-specific peptidase 9 X-linked (USP9X), mouse, endogenous (mouse (endogenous in BMDMs and RAW264.7)) (UniProt P70398); assay: co-IP; whole cell lysates of BMDMs immunoprecipitated with anti-USP9X or rabbit IgG antibody, Western blot; endogenous proteins
[2] = biological target: T1, class A1 scavenger receptor (SR-A1), mouse, endogenous (mouse (endogenous in BMDMs and RAW264.7)) (UniProt P30204); assay: co-IP; whole cell lysates of RAW264.7 cells immunoprecipitated with anti-USP9X/SR-A1 or rabbit/mouse IgG antibody, immunoblotted with anti-SR-A1 or USP9X antibody; endogenous proteins
T1 sequence: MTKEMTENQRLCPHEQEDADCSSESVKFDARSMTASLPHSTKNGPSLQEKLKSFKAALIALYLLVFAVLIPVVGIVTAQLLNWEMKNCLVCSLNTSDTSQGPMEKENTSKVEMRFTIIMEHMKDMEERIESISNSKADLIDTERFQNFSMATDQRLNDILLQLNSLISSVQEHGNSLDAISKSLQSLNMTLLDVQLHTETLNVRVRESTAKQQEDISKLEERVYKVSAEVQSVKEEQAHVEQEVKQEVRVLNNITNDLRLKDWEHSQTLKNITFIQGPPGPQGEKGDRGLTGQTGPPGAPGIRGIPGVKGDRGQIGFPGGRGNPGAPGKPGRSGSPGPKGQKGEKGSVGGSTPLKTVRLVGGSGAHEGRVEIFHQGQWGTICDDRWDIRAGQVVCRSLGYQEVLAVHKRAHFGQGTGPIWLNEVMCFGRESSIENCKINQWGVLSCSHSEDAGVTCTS

Sequences of proteins named here, by UniProt entry; tags and fusion partners are left off.
UniProt P70398: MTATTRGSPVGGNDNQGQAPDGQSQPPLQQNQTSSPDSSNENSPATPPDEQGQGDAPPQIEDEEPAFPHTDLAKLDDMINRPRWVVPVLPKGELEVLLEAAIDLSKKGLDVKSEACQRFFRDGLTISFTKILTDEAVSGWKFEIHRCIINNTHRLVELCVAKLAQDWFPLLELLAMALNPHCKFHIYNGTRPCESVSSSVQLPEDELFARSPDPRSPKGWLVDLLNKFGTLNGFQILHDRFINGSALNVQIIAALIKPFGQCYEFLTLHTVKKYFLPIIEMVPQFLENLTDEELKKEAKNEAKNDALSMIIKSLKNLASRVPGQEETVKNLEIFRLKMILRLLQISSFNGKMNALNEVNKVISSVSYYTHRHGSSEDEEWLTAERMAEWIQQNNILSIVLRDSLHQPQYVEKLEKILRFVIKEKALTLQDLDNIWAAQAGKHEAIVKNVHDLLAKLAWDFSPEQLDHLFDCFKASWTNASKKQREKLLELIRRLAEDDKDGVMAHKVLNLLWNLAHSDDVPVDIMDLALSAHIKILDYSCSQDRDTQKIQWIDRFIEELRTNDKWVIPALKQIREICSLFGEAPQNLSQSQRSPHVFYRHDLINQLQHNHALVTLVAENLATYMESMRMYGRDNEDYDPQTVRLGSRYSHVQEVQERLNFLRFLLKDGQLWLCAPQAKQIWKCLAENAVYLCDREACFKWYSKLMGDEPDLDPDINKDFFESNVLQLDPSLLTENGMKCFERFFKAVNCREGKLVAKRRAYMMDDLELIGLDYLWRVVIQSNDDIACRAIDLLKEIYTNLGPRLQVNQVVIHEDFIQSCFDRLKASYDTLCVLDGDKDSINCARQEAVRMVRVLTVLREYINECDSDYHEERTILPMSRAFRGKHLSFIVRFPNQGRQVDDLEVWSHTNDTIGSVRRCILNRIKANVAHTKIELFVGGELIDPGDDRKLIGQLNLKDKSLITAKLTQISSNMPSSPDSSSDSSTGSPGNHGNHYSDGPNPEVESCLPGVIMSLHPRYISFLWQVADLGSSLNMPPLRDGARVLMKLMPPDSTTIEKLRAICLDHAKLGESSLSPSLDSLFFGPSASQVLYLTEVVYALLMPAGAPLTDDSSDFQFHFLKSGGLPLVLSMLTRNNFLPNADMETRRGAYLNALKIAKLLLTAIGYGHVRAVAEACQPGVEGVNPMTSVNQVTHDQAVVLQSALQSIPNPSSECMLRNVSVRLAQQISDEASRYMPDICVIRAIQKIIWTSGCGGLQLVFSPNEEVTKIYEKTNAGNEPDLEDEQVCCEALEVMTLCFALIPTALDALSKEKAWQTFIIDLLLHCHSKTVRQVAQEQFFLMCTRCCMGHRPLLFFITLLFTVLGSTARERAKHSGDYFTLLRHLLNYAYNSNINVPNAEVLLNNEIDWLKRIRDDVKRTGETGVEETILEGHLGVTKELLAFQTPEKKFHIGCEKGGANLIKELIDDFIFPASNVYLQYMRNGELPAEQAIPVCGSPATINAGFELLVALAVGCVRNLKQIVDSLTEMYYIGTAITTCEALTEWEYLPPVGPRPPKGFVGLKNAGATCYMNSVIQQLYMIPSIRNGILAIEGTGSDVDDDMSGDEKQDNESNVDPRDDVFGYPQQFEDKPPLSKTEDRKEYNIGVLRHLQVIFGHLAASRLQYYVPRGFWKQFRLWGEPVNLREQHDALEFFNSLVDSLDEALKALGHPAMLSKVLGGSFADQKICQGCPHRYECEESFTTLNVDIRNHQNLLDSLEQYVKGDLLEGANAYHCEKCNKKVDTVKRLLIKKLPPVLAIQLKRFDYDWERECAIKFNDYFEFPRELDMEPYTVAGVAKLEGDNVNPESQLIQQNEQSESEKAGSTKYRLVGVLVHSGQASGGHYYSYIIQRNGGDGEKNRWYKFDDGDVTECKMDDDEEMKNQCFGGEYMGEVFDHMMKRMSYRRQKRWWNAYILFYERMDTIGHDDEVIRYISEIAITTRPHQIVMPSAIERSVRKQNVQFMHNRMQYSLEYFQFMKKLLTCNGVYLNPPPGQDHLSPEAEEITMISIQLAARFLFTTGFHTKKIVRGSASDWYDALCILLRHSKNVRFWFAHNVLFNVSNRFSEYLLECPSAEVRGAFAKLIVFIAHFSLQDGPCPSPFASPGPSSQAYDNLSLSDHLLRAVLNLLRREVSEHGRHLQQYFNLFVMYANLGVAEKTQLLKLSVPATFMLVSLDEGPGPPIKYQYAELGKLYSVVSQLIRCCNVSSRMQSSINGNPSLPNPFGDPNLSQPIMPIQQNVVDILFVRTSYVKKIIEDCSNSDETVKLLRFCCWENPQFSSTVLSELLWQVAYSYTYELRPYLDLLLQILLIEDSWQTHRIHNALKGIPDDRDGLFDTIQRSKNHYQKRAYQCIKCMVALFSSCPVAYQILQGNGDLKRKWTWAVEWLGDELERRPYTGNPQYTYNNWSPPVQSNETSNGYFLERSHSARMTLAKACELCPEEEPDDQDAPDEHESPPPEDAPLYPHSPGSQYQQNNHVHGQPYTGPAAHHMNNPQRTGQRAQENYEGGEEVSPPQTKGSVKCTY
UniProt Q08857: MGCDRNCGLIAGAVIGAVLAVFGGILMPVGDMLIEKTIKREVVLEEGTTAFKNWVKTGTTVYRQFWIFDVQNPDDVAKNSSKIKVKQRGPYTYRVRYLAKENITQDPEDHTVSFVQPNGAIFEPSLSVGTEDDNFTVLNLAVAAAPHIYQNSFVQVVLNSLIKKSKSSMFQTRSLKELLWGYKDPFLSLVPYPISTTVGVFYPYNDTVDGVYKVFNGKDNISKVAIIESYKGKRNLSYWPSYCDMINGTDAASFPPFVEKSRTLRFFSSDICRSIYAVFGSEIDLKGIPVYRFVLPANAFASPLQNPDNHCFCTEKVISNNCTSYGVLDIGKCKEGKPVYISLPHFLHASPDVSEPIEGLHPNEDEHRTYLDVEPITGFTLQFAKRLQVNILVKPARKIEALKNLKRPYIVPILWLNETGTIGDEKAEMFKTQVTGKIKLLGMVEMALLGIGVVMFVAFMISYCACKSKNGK
UniProt P41233: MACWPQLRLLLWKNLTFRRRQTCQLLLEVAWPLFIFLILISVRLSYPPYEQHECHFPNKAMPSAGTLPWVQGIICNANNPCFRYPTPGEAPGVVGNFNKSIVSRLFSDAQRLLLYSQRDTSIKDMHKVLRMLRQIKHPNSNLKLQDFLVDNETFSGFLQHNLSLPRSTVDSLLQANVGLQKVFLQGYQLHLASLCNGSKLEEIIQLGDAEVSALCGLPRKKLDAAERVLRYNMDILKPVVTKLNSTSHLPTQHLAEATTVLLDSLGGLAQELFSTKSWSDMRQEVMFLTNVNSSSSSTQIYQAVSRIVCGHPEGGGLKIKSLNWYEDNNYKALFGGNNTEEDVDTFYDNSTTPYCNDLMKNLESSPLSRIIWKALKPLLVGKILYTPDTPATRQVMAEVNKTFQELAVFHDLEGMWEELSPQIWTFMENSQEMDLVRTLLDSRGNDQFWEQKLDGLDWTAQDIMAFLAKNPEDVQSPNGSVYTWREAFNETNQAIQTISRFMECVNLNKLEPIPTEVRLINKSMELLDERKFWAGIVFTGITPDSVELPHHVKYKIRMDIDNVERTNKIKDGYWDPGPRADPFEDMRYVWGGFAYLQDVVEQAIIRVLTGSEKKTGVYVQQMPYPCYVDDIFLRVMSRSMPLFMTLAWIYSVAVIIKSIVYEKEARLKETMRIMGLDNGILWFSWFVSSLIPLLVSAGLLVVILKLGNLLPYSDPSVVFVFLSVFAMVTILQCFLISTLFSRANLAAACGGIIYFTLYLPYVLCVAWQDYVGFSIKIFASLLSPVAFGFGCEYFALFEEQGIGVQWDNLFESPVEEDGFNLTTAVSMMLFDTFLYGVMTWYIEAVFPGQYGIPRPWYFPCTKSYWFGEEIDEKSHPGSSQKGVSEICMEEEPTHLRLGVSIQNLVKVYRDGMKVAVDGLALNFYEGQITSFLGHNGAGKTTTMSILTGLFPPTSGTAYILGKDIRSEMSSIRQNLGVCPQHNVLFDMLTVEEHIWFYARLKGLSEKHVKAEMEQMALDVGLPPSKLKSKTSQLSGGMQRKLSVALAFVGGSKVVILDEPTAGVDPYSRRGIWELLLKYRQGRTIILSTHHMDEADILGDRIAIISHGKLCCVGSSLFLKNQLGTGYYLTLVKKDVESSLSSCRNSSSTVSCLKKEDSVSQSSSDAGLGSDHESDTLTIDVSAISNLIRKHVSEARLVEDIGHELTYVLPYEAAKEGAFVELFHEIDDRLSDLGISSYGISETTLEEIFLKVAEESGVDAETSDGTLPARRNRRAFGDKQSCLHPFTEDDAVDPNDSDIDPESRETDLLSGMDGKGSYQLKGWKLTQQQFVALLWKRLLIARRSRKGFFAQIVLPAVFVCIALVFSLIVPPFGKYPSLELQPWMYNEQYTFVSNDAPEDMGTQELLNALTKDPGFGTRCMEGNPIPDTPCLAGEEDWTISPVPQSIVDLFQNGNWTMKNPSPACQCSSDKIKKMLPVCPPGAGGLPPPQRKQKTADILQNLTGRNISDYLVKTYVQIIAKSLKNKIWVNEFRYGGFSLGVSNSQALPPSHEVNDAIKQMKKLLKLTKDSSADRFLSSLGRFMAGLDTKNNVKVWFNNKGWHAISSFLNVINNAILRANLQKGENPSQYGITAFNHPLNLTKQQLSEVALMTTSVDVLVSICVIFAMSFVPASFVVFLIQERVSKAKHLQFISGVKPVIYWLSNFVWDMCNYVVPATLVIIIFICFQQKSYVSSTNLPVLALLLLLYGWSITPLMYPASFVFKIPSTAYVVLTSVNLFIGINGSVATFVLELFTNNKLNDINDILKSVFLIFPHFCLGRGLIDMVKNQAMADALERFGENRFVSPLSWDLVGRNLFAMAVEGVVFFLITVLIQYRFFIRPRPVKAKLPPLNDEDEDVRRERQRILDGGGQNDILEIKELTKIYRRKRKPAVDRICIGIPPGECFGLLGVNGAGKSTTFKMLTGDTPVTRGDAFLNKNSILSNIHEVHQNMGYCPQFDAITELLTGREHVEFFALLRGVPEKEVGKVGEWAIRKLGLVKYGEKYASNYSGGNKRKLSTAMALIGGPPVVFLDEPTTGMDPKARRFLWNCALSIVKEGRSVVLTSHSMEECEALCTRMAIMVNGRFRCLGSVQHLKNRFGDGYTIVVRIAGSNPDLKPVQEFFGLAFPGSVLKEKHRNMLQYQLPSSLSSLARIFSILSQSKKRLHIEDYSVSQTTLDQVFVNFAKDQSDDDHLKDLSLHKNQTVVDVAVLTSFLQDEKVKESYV
UniProt Q9EQ09: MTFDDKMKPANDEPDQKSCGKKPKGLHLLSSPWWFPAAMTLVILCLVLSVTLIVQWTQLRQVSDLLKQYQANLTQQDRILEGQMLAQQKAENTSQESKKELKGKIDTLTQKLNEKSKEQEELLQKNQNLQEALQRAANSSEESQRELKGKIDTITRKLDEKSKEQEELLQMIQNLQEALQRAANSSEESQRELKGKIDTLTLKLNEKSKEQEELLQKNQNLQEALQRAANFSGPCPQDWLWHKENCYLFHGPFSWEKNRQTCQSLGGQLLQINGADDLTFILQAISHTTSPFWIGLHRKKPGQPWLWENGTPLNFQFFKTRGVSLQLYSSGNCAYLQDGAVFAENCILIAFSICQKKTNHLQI

[3] = biological target: ubiquitin-specific peptidase 9 X-linked (USP9X), mouse, endogenous (mouse (endogenous in BMDMs and RAW264.7)) (UniProt P70398); assay: as above
[4] = biological target: ubiquitin-specific peptidase 9 X-linked (USP9X), mouse, endogenous (mouse (endogenous in BMDMs and RAW264.7)) (UniProt P70398); assay: co-IP; BMDMs treated with control peptide (peptide-C, 20 μM) for 24 hours; IP with antibody against USP9X or IgG
[5] = biological target: ubiquitin-specific peptidase 9 X-linked (USP9X), mouse, endogenous (mouse (endogenous in BMDMs and RAW264.7)) (UniProt P70398); assay: co-IP; BMDMs treated with peptide-I (20 μM) for 24 hours; IP with antibody against USP9X or IgG
[6] = biological target: ubiquitin-specific peptidase 9 X-linked (USP9X), human, endogenous (human (endogenous in HMDMs)) (UniProt Q93008); assay: proximity ligation; in situ PLA with proximity probes against USP9X and SR-A1 in HMDMs; negative technical control omitting one of the primary antibodies
FLAG-USP9X = FLAG-USP9X (UniProt Q93008); assay: co-IP; HeLa cells stably expressing doxycycline-induced FLAG-USP9X and cotransfected with MYC-SR-A1

- binding [1]: no binding
Molecule: CD36, mouse, endogenous (from UniProt Q08857 1-472) (receptor)

- binding [1]: no binding
Molecule: ATP-binding cassette transporter A1 (ABCA1), mouse, endogenous (from UniProt P41233 1-2261)

- binding [1]: no binding
Molecule: LOX-1, mouse, endogenous (from UniProt Q9EQ09 1-363) (receptor)

The remaining lines, values behind:

Molecule: ubiquitin-specific peptidase 9 X-linked (USP9X), mouse, endogenous (from UniProt P70398 1-2559) (enzyme)
- binding [2]: binds

B1: class A1 scavenger receptor (SR-A1), mouse, endogenous (receptor, UniProt P30204 1-458)
chain: T1 sequence
- binding [1]: binds
- binding [3]: binds
- binding [4]: binds
- binding [5]: no binding (condition: with peptide-I (20 μM, 24 hours))

B2: class A1 scavenger receptor (SR-A1), human, endogenous (receptor, UniProt P21757 1-451)
chain: MEQWDHFHNQQEDTDSCSESVKFDARSMTALLPPNPKNSPSLQEKLKSFKAALIALYLLVFAVLIPLIGIVAAQLLKWETKNCSVSSTNANDITQSLTGKGNDSEEEMRFQEVFMEHMSNMEKRIQHILDMEANLMDTEHFQNFSMTTDQRFNDILLQLSTLFSSVQGHGNAIDEISKSLISLNTTLLDLQLNIENLNGKIQENTFKQQEEISKLEERVYNVSAEIMAMKEEQVHLEQEIKGEVKVLNNITNDLRLKDWEHSQTLRNITLIQGPPGPPGEKGDRGPTGESGPRGFPGPIGPPGLKGDRGAIGFPGSRGLPGYAGRPGNSGPKGQKGEKGSGNTLTPFTKVRLVGGSGPHEGRVEILHSGQWGTICDDRWEVRVGQVVCRSLGYPGVQAVHKAAHFGQGTGPIWLNEVFCFGRESSIEECKIRQWGTRACSHSEDAGVTCTL
- binding [6]: binds

B3: MYC-SR-A1 (in HeLa cells) (receptor, UniProt P30204 1-458)
chain: T1 sequence
- binding (FLAG-USP9X): binds

B4: SR-B1, mouse, endogenous (receptor, UniProt Q61009 1-509)
chain: MGGSSRARWVALGLGALGLLFAALGVVMILMVPSLIKQQVLKNVRIDPSSLSFGMWKEIPVPFYLSVYFFEVVNPNEVLNGQKPVVRERGPYVYREFRQKVNITFNDNDTVSFVENRSLHFQPDKSHGSESDYIVLPNILVLGGSILMESKPVSLKLMMTLALVTMGQRAFMNRTVGEILWGYDDPFVHFLNTYLPDMLPIKGKFGLFVGMNNSNSGVFTVFTGVQNFSRIHLVDKWNGLSKIDYWHSEQCNMINGTSGQMWAPFMTPESSLEFFSPEACRSMKLTYNESRVFEGIPTYRFTAPDTLFANGSVYPPNEGFCPCRESGIQNVSTCRFGAPLFLSHPHFYNADPVLSEAVLGLNPNPKEHSLFLDIHPVTGIPMNCSVKMQLSLYIKSVKGIGQTGKIEPVVLPLLWFEQSGAMGGKPLSTFYTQLVLMPQVLHYAQYVLLGLGGLLLLVPIICQLRSQEKCFLFWSGSKKGSQDKEAIQAYSESLMSPAAKGTVLQEAKL
- binding [1]: no binding
